The IC50 is the concentration that inhibits the measured activity by half.

For 65 cell lines, AUC and IC50 results are on record in the supplement of paper PMC4967469.

By IC50 is meant the dose at which the fit gives 50% viability; a limit (>, <) means that the fit lies beyond the doses tested. For AUC the same curve is integrated over the 256-fold range of doses and scaled to a fraction: 1 means no effect, lower means more sensitive. Any top dose called inferred is not printed in the source and was worked back from the curve model.

Compound in the experiment: COc1ncc(-c2ccc3nccc(-c4ccnnc4)c3c2)cc1NS(=O)(=O)c1ccc(F)cc1F [GSK2126458]
The experiment can be described thus: Viability of human cancer cell lines after 72 h of drug (GDSC screen). Particulars: top dose inferred. On the procedure: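 Human cancer cell lines in 384-well plates, medium with 10% serum, drug for 72 h over a 256-fold dose range (nine 2-fold or five 4-fold steps up to the top dose). Adherent lines were fixed and stained with the nucleic acid dye Syto60, suspension lines read with resazurin; signal relative to control wells, capped at 0 and 100%. One two-parameter sigmoid per drug and line, fitted in a mixed model over all curves with the slope shared within a line.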

Consider “SK-MEL-28 (melanoma, adherent, top dose 0.128 µM)”, for which the AUC was 0.877 and the IC50 came to 124 nM.
Regarding “SK-MEL-30 (melanoma, adherent, top dose 0.128 µM)”, the AUC was found to be 0.722 and the IC50 amounted to 35.5 nM.
Turning to “SK-MES-1 (lung squamous cell carcinoma, adherent, top dose 0.128 µM)”, the AUC amounted to 0.735 and the IC50 is 40 nM.
As for “SK-MG-1 (glioma, adherent, top dose 0.128 µM)”, the AUC worked out at 0.987 and the IC50 is greater than 128 nM.
Take “SK-MM-2 (myeloma, suspension, top dose 0.128 µM)”: the AUC was 0.281 and the IC50 was 1.86 nM.
As for “SK-N-AS (neuroblastoma, adherent, top dose 0.128 µM)”, the AUC was 0.779 and the IC50 was found to be 60.8 nM.
Take “SK-N-DZ (neuroblastoma, adherent, top dose 0.128 µM)”: the AUC stood at 0.986 and the IC50 was greater than 128 nM.
Regarding “SK-N-FI (neuroblastoma, adherent, top dose 0.128 µM)”, the AUC was 0.911 and the IC50 was greater than 128 nM.
As for “SK-N-SH (neuroblastoma, adherent, top dose 0.128 µM)”, the AUC came to 0.827 and the IC50 was 77.5 nM.
Take “SK-OV-3 (ovary, adherent, top dose 0.128 µM)”: the AUC is 0.513 and the IC50 is 8.75 nM.
Regarding “SK-PN-DW (Ewing sarcoma, adherent, top dose 0.128 µM)”, the AUC was 0.746 and the IC50 was 41.8 nM.
On to “SK-UT-1 (soft tissue, adherent, top dose 0.128 µM)”, for which the AUC worked out at 0.877 and the IC50 amounted to 109 nM.
“SKG-IIIa (cervix, adherent, top dose 0.128 µM)”: the AUC was determined as 0.972 and the IC50 is greater than 128 nM.
In the case of “SKN (uterus, adherent, top dose 0.128 µM)”, the AUC was determined as 0.88 and the IC50 is greater than 128 nM.
Turning to “SKN-3 (head and neck, adherent, top dose 0.128 µM)”, the AUC stood at 0.874 and the IC50 was greater than 128 nM.
In the case of “SLVL (B-cell lymphoma, suspension, top dose 0.128 µM)”, the AUC worked out at 0.59 and the IC50 stood at 14.3 nM.
For the cell line “SN12C (kidney, adherent, top dose 0.128 µM)”, the AUC was determined as 0.941 and the IC50 is greater than 128 nM.
The matching figures for “SNB75 (glioma, adherent, top dose 0.128 µM)”: 0.768 and 71 nM.
The matching figures for “SNG-M (endometrium, adherent, top dose 0.128 µM)”: 0.57 and 12.4 nM.
The like results for “SNU-61 (large intestine, adherent, top dose 0.128 µM)” were, in that order, 0.824 and 110 nM.
In the case of “SNU-81 (large intestine, adherent, top dose 0.128 µM)”, the AUC was 0.568 and the IC50 amounted to 13 nM.
The like results for “SNU-175 (large intestine, suspension, top dose 0.128 µM)” were, in that order, 0.773 and 47 nM.
For the cell line “SNU-182 (liver, adherent, top dose 0.128 µM)”, the AUC came to 0.735 and the IC50 was determined as 38.8 nM.
Turning to “SNU-387 (liver, adherent, top dose 0.128 µM)”, the AUC is 0.672 and the IC50 is 26 nM.
Turning to “SNU-398 (liver, adherent, top dose 0.128 µM)”, the AUC is 0.84 and the IC50 stood at 93.3 nM.
With “SNU-407 (large intestine, adherent, top dose 0.128 µM)”, the AUC amounted to 0.631 and the IC50 amounted to 19.5 nM.
For the cell line “SNU-423 (liver, adherent, top dose 0.128 µM)”, the AUC was 0.569 and the IC50 was determined as 12.7 nM.
The matching figures for “SNU-449 (liver, adherent, top dose 0.128 µM)”: 0.733 and 39.8 nM.
With “SNU-475 (liver, adherent, top dose 0.128 µM)”, the AUC worked out at 0.928 and the IC50 is greater than 128 nM.
Turning to “SNU-1040 (large intestine, adherent, top dose 0.128 µM)”, the AUC is 0.728 and the IC50 was 45.3 nM.
The like results for “SNU-C1 (large intestine, suspension, top dose 1.024 µM)” were, in that order, 0.822 and 1020 nM.
For the cell line “SNU-C2B (large intestine, adherent, top dose 1.024 µM)”, the AUC is 0.785 and the IC50 was determined as 596 nM.
Regarding “SNU-C5 (large intestine, adherent, top dose 0.128 µM)”, the AUC was 0.822 and the IC50 stood at 85.2 nM.
“SR (lymphoid neoplasm, suspension, top dose 0.128 µM)”: the AUC was found to be 0.43 and the IC50 was determined as 5.24 nM.
Consider “ST486 (Burkitt lymphoma, suspension, top dose 0.128 µM)”, for which the AUC came to 0.501 and the IC50 turned out to be 8.05 nM.
As to “SU8686 (pancreas, adherent, top dose 0.128 µM)”, the AUC was 0.844 and the IC50 stood at 108 nM.
The like results for “SU-DHL-1 (anaplastic large cell lymphoma, suspension, top dose 0.128 µM)” were, in that order, 0.509 and 8.39 nM.
As to “SU-DHL-4 (B-cell lymphoma, suspension, top dose 0.128 µM)”, the AUC worked out at 0.612 and the concentration for half-maximal inhibition (IC50) was 14.9 nM.
For “SU-DHL-5 (B-cell lymphoma, suspension, top dose 0.128 µM)”, the AUC turned out to be 0.27 and the IC50 amounted to 2.17 nM.
Turning to “SU-DHL-6 (B-cell lymphoma, suspension, top dose 0.128 µM)”, the AUC was found to be 0.049 and the half-inhibitory concentration (IC50) is less than 0.5 nM.
For the cell line “SU-DHL-8 (B-cell lymphoma, suspension, top dose 0.128 µM)”, the AUC was 0.464 and the half-maximal inhibitory concentration (IC50) amounted to 6.42 nM.
The like results for “SU-DHL-10 (B-cell lymphoma, suspension, top dose 0.128 µM)” were, in that order, 0.343 and 3.35 nM.
On to “SU-DHL-16 (B-cell lymphoma, suspension, top dose 0.128 µM)”, for which the AUC was determined as 0.037 and the 50% inhibitory concentration (IC50) is less than 0.5 nM.
“SUIT-2 (pancreas, adherent, top dose 0.128 µM)”: the AUC came out at 0.483 and the IC50 amounted to 7.2 nM.
The matching figures for “SUP-B15 (lymphoblastic leukaemia, suspension, top dose 0.128 µM)”: 0.371 and 3.59 nM.
As to “SUP-HD1 (Hodgkin lymphoma, suspension, top dose 0.128 µM)”, the AUC was 0.473 and the IC50 came to 6.78 nM.
The matching figures for “SUP-M2 (anaplastic large cell lymphoma, suspension, top dose 0.128 µM)”: 0.234 and 1.73 nM.
For the cell line “SUP-T1 (T-cell lymphoblastic leukaemia, suspension, top dose 1.024 µM)”, the AUC was found to be 0.578 and the IC50 was 102 nM.
In the case of “SW13 (adrenal gland, adherent, top dose 0.128 µM)”, the AUC was determined as 0.971 and the IC50 is greater than 128 nM.
In the case of “SW48 (large intestine, adherent, top dose 1.024 µM)”, the AUC amounted to 0.771 and the half-maximal inhibitory concentration (IC50) stood at 390 nM.
As for “SW156 (kidney, adherent, top dose 0.128 µM)”, the AUC is 0.735 and the IC50 came to 40.9 nM.
Consider “SW620 (large intestine, adherent, top dose 1.024 µM)”, for which the AUC came out at 0.418 and the IC50 stood at 39.2 nM.
The like results for “SW626 (ovary, adherent, top dose 0.128 µM)” were, in that order, 0.632 and 19.8 nM.
For “SW684 (fibrosarcoma, adherent, top dose 0.128 µM)”, the AUC was determined as 0.925 and the IC50 is greater than 128 nM.
For the cell line “SW756 (cervix, adherent, top dose 0.128 µM)”, the AUC worked out at 0.934 and the IC50 is greater than 128 nM.
The matching figures for “SW780 (bladder, adherent, top dose 0.128 µM)”: 0.956 and greater than 128 nM.
The matching figures for “SW837 (large intestine, adherent, top dose 0.128 µM)”: 0.74 and 49.3 nM.
With “SW872 (soft tissue, adherent, top dose 0.128 µM)”, the AUC was 0.883 and the IC50 worked out at 114 nM.
As to “SW900 (lung squamous cell carcinoma, adherent, top dose 0.128 µM)”, the AUC amounted to 0.838 and the half-inhibitory concentration (IC50) is 107 nM.
Regarding “SW948 (large intestine, adherent, top dose 1.024 µM)”, the AUC was 0.45 and the IC50 came out at 43.9 nM.
On to “SW954 (urogenital system, adherent, top dose 0.128 µM)”, for which the AUC turned out to be 0.38 and the IC50 was determined as 3.73 nM.
In the case of “SW962 (urogenital system, adherent, top dose 0.128 µM)”, the AUC was 0.891 and the 50% inhibitory concentration (IC50) is greater than 128 nM.
As to “SW982 (soft tissue, adherent, top dose 0.128 µM)”, the AUC was 0.702 and the IC50 was 30.2 nM.
As to “SW1088 (glioma, adherent, top dose 0.128 µM)”, the AUC was determined as 0.734 and the IC50 was 46.4 nM.
Take “SW1116 (large intestine, adherent, top dose 0.128 µM)”: the AUC stood at 0.985 and the IC50 was greater than 128 nM.
